Test results: paper PMC4209604
Where a chain is given by its changes, count along the chain named. No constants are given. Whether binding was seen depends on the method and setting. Binding seen in cells or lysates may run through a third protein. Some binding calls cover weakened binding; strength is not graded here. For some of these results: Where a sequence is shown, tags or fusion partners need not be part of it.

The chains behind the UniProt entries cited, without tags or fusion partners.
UniProt P46934: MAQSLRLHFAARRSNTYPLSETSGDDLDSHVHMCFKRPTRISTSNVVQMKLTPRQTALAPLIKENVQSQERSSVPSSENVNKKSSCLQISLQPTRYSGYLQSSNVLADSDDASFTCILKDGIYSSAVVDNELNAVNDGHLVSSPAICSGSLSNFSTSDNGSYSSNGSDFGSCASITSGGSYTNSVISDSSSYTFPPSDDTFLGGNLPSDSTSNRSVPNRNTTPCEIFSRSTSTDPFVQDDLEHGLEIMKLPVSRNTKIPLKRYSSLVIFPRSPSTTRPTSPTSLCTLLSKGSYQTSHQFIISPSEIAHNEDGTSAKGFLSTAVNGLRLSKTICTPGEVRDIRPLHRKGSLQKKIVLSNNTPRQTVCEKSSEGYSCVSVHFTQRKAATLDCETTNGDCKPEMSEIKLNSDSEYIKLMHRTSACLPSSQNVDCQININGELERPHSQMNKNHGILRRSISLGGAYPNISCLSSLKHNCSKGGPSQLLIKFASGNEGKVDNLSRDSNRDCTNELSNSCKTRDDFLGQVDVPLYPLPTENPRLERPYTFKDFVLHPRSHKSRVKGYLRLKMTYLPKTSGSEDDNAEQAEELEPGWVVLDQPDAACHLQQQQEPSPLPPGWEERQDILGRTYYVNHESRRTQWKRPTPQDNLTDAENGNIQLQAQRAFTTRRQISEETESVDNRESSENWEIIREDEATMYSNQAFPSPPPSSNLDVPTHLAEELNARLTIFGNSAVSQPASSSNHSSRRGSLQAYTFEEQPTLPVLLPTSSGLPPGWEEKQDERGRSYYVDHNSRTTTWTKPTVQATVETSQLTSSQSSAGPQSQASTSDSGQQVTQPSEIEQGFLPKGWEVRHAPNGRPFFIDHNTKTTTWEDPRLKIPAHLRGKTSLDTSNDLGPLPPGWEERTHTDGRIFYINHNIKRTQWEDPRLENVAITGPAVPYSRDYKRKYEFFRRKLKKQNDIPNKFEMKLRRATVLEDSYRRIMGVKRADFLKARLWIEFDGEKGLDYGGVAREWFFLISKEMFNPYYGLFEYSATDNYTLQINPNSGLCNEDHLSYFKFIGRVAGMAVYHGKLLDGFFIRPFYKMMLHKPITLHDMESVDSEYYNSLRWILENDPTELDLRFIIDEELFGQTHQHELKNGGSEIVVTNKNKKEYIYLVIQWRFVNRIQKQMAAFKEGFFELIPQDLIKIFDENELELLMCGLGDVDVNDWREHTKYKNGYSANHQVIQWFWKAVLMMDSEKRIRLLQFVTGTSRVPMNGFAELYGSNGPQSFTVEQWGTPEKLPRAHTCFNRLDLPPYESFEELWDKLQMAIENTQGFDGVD
UniProt P84022: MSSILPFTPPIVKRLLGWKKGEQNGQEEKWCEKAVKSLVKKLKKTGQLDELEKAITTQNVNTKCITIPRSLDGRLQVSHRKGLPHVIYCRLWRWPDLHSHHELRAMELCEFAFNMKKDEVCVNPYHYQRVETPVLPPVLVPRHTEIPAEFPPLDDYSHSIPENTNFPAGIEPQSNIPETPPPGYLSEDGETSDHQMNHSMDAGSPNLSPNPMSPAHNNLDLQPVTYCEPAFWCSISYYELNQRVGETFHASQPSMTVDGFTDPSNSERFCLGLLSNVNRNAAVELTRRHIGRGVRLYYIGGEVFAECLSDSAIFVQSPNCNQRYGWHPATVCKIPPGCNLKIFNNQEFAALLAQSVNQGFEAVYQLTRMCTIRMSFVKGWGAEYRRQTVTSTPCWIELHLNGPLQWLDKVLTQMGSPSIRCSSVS
UniProt Q15796: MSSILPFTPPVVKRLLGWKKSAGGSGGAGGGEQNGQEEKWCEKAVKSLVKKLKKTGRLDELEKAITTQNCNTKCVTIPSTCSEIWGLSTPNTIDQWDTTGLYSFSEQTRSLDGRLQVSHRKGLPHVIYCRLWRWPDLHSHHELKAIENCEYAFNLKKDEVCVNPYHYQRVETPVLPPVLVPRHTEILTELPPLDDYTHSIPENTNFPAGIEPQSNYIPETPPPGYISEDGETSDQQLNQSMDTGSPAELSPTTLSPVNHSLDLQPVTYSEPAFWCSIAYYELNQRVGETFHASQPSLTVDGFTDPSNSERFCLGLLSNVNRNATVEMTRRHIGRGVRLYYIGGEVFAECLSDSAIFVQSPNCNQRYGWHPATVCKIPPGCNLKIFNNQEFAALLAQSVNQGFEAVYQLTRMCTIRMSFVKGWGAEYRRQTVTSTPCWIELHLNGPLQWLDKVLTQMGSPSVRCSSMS

Experiments:
[1] = molecular target: T1, His-tagged TMEPAI (transmembrane prostate androgen-induced), wild type (human) (UniProt Q969W9); experiment: pull-down; His-TMEPAI (wild type, PY or SIM mutant) co-expressed with Flag-Smad2 or Flag-Smad3 in MDA-MB-231; lysates 24 h after transfection captured on Co2+-Talon metal beads under native conditions; Western blot for TMEPAI and R-Smads
T1 sequence: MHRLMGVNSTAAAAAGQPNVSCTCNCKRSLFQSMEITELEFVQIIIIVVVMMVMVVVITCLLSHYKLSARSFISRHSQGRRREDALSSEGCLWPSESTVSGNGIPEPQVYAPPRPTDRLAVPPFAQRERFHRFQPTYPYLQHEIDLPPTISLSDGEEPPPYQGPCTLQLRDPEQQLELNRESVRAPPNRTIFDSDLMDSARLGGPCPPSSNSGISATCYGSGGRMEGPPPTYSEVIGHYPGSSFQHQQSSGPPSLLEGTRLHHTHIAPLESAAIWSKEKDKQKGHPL

[2] = molecular target: T2, His-tagged TMEPAI SIM mutant (186PPNR189 → PAAR) (human) (UniProt Q969W9); experiment: as above
T2 sequence: T1 sequence with P187A, N188A

[3] = molecular target: T3, His-tagged TMEPAI PY mutant (158PPPY161 → PPPA and 229PPTY232 → PPTA) (human) (UniProt Q969W9); experiment: as above
T3 sequence: T1 sequence with Y161A, Y232A

[4] = molecular target: NEDD4, a WW-domain containing HECT E3 ligase, endogenous (human (endogenous in MDA-MB-231)) (UniProt P46934); experiment: co-IP; immunoprecipitation by α-NEDD4 rabbit polyclonal antibody from MDA-MB-231 cell lysates treated without or with TGF-β; blots for TMEPAI, NEDD4 and PTEN; rabbit IgG control

## Flag-tagged Smad3 (from UniProt P84022 1-425)
[1]
  binding: binds
[2]
  binding: no binding
[3]
  binding: binds

## Flag-tagged Smad2 (from UniProt Q15796 1-467)
[1]
  binding: binds
[2]
  binding: no binding
[3]
  binding: binds

B1: TMEPAI (transmembrane prostate androgen-induced), endogenous (protein, UniProt Q969W9 1-287)
chain: T1 sequence
[4]
  binding: binds
